The list shows a part of the results.
What follows are compounds tested on S. aureus RN4220 (assay: growth inhibition call (relative growth <= 0.2)). Conditions: 50 µM.

Growth inhibition call, inactive:
C[C@H]1CCCCO[C@H](CN(C)C(=O)Nc2ccc(F)cc2)[C@@H](C)CN([C@@H](C)CO)C(=O)c2cc(NC(=O)C3CCCCC3)ccc2O1, C=CCC[C@H](Cc1ccc(F)cc1)C(=O)OC[C@@H](NC(=O)[C@H](CC=C)CC(=O)N(CCO)Cc1ccccc1)C(C)(C)C, COc1cccc(C#Cc2ccc([C@H]3[C@H](CO)N4C(=O)CN(S(=O)(=O)c5ccccc5C)C[C@@H]34)cc2)c1, CC(C)CNC(=O)C(=O)NCc1ccccn1, C[C@H]1O[C@@H](O[C@H]2CC[C@@]3(C)[C@@H](CC[C@@]4(C)[C@@H]3CC=C3[C@H]5C[C@](C)(C(=O)O)CC[C@]5(C(=O)O[C@H]5O[C@@H](CO)[C@@H](O)[C@@H](O)[C@@H]5O)CC[C@@]34C)[C@@]2(C)CO)[C@@H](O)[C@@H](O[C@H]2O[C@@H](CO)[C@@H](O)[C@@H](O)[C@@H]2O)[C@@H]1O, C[C@@H]1CN([C@H](C)CO)C(=O)CCCn2nncc2CO[C@@H]1CN(C)C(=O)Nc1ccc(N2CCN(C)CC2)cc1, COc1ccc(C#Cc2cnc3c(c2)C(=O)N([C@@H](C)CO)C[C@H](C)[C@H](CN(C)C(=O)CC2CC2)O3)cc1

Reference: the antibiotic and cytotoxicity screens of Wong et al. (2023)
